The supplement of paper PMC10126150
Sequences with one replicate were seen in a single cluster, so their values are uncertain.

Test system: ATP
Assay: switch fluorescence ratio, 500 uM ATP over buffer (Cy3 cluster intensity, sum of 5 cycles each) (fold (ratio)); higher = stronger signal-on switching upon ATP binding; sequences stand for … in TCGTCGGCAGCGTCAGATGTGTATAAGAGACAGTTTTTTTTTTTTTTTTTTTTTTTTT…TC
Settings: aptamer strand: ATP DNA aptamer (quencher-CACCTGGGGGAGTATTGCGGAGGAAGG + anchor), 100 nM annealed; ATP concentration: 500 uM; one replicate
Method in brief: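 Exposure to 500 uM ATP lasted 15 min at 22 °C before imaging, and a selection-buffer image was taken beforehand, for Cy3-labelled switching-strand clusters on a modified Illumina MiSeq flow-cell annealed to 100 nM quencher-labelled ATP aptamer. Five buffer/ATP cycles were run with NaOH stripping and re-annealing between them. The fluorescence ratio per cluster is summed target-cycle over summed buffer-cycle Cy3 intensity, averaged per switch-domain sequence. Clusters outside 100-1000 RFU were excluded.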

Row | Sequence | switch fluorescence ratio
1 | GAATGAATTT | 0.976
2 | CGTTCCATCG | 1.03
3 | AACTTATCCA | 1.05
4 | AGTAAAGGGG | 0.957
5 | AATTGAAGTC | 0.934
6 | AACCAACGGG | 1.04
7 | AGGTTCTCGA | 0.986
8 | GGATTAGTAA | 0.995
9 | CACAGGGCAG | 0.971
10 | TAGGTAGATA | 1.03
11 | TTAGGCATAG | 0.98
12 | AGAGGACGAA | 0.996
13 | AGGATAGAGG | 1.01
14 | GCCTCCACCC | 1.24
15 | GGATCAGAGG | 0.975
16 | GCAAATCTTG | 0.994
17 | TCCGTCTCGT | 1.06
18 | GGGTGATAGG | 1.03
19 | GTATGGCGCT | 0.984
20 | GTCACAAGTA | 0.992
21 | TAGAATTAGA | 1.01
22 | GTGTGTGCTG | 1.1
23 | ATAGTTGCCA | 0.982

Row | Sequence | switch fluorescence ratio
24 | TAAAGTCTG | 0.935
25 | CTGCAGTGAG | 1.1
26 | TGCAAGACAT | 1.16
27 | AGACTGACCG | 1.04
28 | TTGACTTGGT | 1.01
29 | CTTGAAACTT | 1.1
30 | CATTTGAAAG | 1.02
31 | GATTTGAATA | 1.01
32 | GTGCCTCGGA | 1.01
33 | AAGTACGCAT | 1.45
34 | GCGTGGAGTC | 1.02
35 | AGCGACTCAG | 1.03
36 | CAGAGACTA | 1.03
37 | AGAAGCACTG | 1.16
38 | TTGACTATGC | 0.964
39 | TATGAGGACT | 1.01
40 | TTCGATTCA | 0.99
41 | TGCTATTCTG | 0.904
42 | CGCAACCTGA | 1.46
43 | CTGCCGGCAA | 1.49
44 | CATTCAAGTC | 0.974
45 | ACGACTCTGG | 0.981
46 | GTGTAAAGAA | 1.03

Row | Sequence | switch fluorescence ratio
47 | ACGACGATAT | 2.11
48 | ACGGCCCTAA | 1.02
49 | GGAGGCTACG | 1.05
50 | AGCCTTAAGT | 1.03
51 | CGGATCTATT | 1.01
52 | CATCCTTTAC | 3.28
53 | GGGACCGGGT | 1.03
54 | AGTTATTCGG | 1.01
55 | GATCAGCTGA | 1.05
56 | ACATCTGTTG | 0.968
57 | GGTTGACCCG | 1.08
58 | TAGAAGGCAT | 1.02
59 | CTGCCTGGGT | 0.991
60 | AAAATTCTG | 1.09
61 | GAAGTAACTA | 1.03
62 | GAGAGGATTG | 0.987
63 | CTGGGCTCCA | 1.02
64 | CGACTGGCCA | 1.02
65 | GTGTTCTCA | 1.1
66 | ACCGCTAGTC | 2.13
67 | CATTAGTGTG | 0.996
68 | AAAATGGAG | 1.43
69 | GTATACCTTC | 1.22

Row | Sequence | switch fluorescence ratio
70 | GCGATAGGTA | 1
71 | CATATTTAGA | 0.998
72 | TAACTCGGGA | 1.15
73 | ACTTGAGGAG | 0.989
74 | TAACTGGCCG | 0.986
75 | CTATGGCGT | 1.03
76 | CACTGAATTG | 1.03
77 | TCCGGTACAT | 1.09
78 | GCATTATCAA | 0.971
79 | TAAAACTCAC | 1.02
80 | AGTATGTAGT | 0.996
81 | CGTATGCCAT | 0.973
82 | AAAATCCCTC | 0.997
83 | AGTCTAATAA | 1.05
84 | TGAGACGCTT | 1.03
85 | GATAGAGTTG | 0.984
86 | GTCATGAAGG | 0.975
87 | TTATACGGTG | 1.05
88 | TTTCGTACAT | 1.03
89 | TTACACTTTT | 0.923
90 | CGGCGGATGA | 1.04
91 | ACAGCGGGGC | 1
92 | GGGGGTATC | 1.07

Row | Sequence | switch fluorescence ratio
93 | ATGATGGCAT | 1.02
94 | CCATATTAAA | 0.994
95 | TTTATCGAAC | 1.03
96 | TTAAGGGGCG | 1.02
97 | TCGTTTCAGT | 1.01
98 | GCTGTTAAAC | 1.04
99 | TGTCGGTTTG | 0.979
100 | TTACTTACAT | 1.32
101 | ATATAACTAA | 0.976
102 | ACGCGTCGTT | 0.991
103 | TTGAAACGCG | 0.988
104 | AATAGGTGCG | 1
105 | CACGCTCGTT | 1.01
106 | GGTTGTAGAG | 0.97
107 | ACGACCACGC | 1.12
108 | TAAGTAAAAC | 1.21
109 | GGGTCAAACA | 1.02
110 | AGCTGTCAAT | 1.04
111 | ACTGGAGATT | 1
112 | ACTGGAGGAA | 1.84
113 | AAGCTGTTTG | 0.981
114 | ACCCTCGAGC | 0.981
115 | AGATTCATCG | 1.03

Row | Sequence | switch fluorescence ratio
116 | TGTTCGTTA | 1.01
117 | TCGCGACATA | 1.03
118 | GCAAAAACAT | 1.03
119 | GTATAATATT | 1.01
120 | TAATAGGCGG | 1.01
121 | ATGAATGTT | 0.939
122 | CCTGATTATC | 1.04
123 | ACACAAGTCC | 1.05
124 | AGTCAGACAA | 1.02
125 | GATTACGATG | 0.992
126 | GCTTGTGTCT | 1.04
127 | CAGACGTGCT | 1.05
128 | TCGGTTCGGC | 0.96
129 | ATCGGGAACG | 0.99
130 | GGCGAAGCAG | 0.988
131 | CATCTGCGCG | 1.04
132 | CCCATTTCAT | 1.01
133 | TCACTAGTCC | 1.61
134 | ATTATAACA | 1.03
135 | GCGCTAAGTC | 1.03
136 | TTCACTAGCT | 1.01
137 | CACTCCGATG | 1.55
138 | TATCATTCTG | 1.02

Row | Sequence | switch fluorescence ratio
139 | AGAGGCCGTA | 1.12
140 | CGGTATGCAG | 0.883
141 | GAAGATGACG | 1.01
142 | CTCATGGATG | 0.963
143 | TATGTCTTTC | 0.977
144 | AATCTCATAC | 1.14
145 | TTGCATCCAG | 1.07
146 | GAGGGGCCCT | 0.973
147 | GTGTCATTAT | 1.02
148 | GGACCGGGGC | 0.987
149 | ATACGTCGGA | 1
150 | CTAACGAACG | 1.16
151 | AAGGCAATGA | 1.8
152 | GGAACCTTG | 1.08
153 | CACTTGGGTA | 0.986
154 | AAGTTCACTG | 1.02
155 | GGAATGGTGT | 1.03
156 | TCTGCCTGGT | 1.03
157 | CAGGCGAGGT | 0.983
